Measurements reported in the RNAGym collection of RNA variant scans (doi:10.7554/elife.90254).
The source gives no read counts; variants with many changes may rest on few reads.

B1: LINE1-full (parent)
chain: UACGUAGGUGGUUUUCCCCUGAUAGUGCUAAGGGGGCCUGGAAGUUUGGACUGGGCAGAGCUCAACACAGCGUGGCAAAGUGGCUGUGGCUAGACUGCCUCUCUGGAUUCCUCGUCACUCAGCAGGGCAUCUCUGAGAGAAAUGCC

Variants of: B1
Assay: self-cleavage, relative activity (ratio to wild type); higher = more cleavage; in vitro, sequencing; the parent is a self-cleaving ribozyme

| Variant | self-cleavage |
| --- | --- |
| UACGUAGGUGGUUUUCCCCUGAUUGUGCUAAGGGGGCCUGGAAGUUUGGACUGGGCAGAGCUCAACACUGCGUGGCAAGGAGGCUGUGGCUAGACUGCCCCUCUGGAUUCCUCGUCACUCAGCAGGGCAUCUCUGAGAGAAAUGCC | 0.22 |
| UACGUAGGUGGUUUUCCCCUGAUAGUGCUAAGGGGGCCUGGAAGUUUGGACUGGGCAGAGCUCAACACAGCGUGGCAAAGUGGCUGUGGCUAGACUGCCUCUCUGGACUCCUCGUCACUCAGCAGGGCUUCUCUGAGAGAUAUGCC | 1.99 |
| UACGUAGGUGGUUUUCCCCUGAUAGUACUAAGGGGGCCUGGAAGUUUGGACUGGGCAGAGCUCAACACAGCGUGGCAAAGUGGCUGCGGCUAGACUGCCUCUCUGGAUUCCUCGCCACUCAGCAGGGCAUCUCUGAGAGAGAUGCC | 0.29 |
| UACGUAGGUGGUUUACCCCUGAUAGUGCUAAGGGGGCCUGGAUGUUUGGACUGGGCAGAGCUCAACACAGCGCGGCAAAGUGGCUGUGGCUAGACUGCCUCUCUGGAUUCCUCGUCACUCAGCAGGGCAUCUCUGAGAGAAAUGCC | 1.12 |
| UACGUAGGUGGUUUUCCCCUGAUAGUGCUAAGGGGGCCUGGAAGUUAGGACUGGGCAGAGCCCAACACAGCGAGGCUAAGUGGCUGUGGCUAGACUGCCUCUCUGGAUUCCUCGUCACUCAGCAGGGCAUCUCUGAGAGAAGUGCC | 0.03 |
| UACGUAGGUGGUUUUCCCCUGAUAGUGCUAAGGGGGCCUGGAAGUUUGGACUGGGCAGAGCUCAACACAGCGUGGCGAAGUGGCUGUGGCUAGACAGCCUCUCUGGAUUCCUCGUCACUCAGCAGGGCGUCUCUGAGAGAAACGCC | 0.07 |
| UACGUAGGUGGUUUUCCCCUGAUAGUGCUUAGGGGGCCUGGAAGUUUGGACUGGGCAGAGCUCAGCACAGCGUGGCAAAGUGGCUGUGGCUAGACUGCCUCUCUGGAUUCCUCGUCACUCAGCAGGGCACCUCUGAGAGAAGUGCC | 0.25 |
| UACGUAGGUGGUCUUCCCCUGAUAGUGCUAAGGGGGCCUGGAAGUUUGGACUGGGCAGAGCUCAACACAGCGUGGCAGAGUGGCUGUUGCUAGACUGCCUCUCUGGAUUCCUCGUCACUCAGCAGGGCAUCUCUGAGAGAAAUGCC | 0.14 |
| UACGUAGGUGGUUUUCCCCUGGUAGUGCUAAGGGGGCCUGGAAGUUUAGGCUGGGCAGAGCUCAACACAGCGUGGCAAAGUGGCUGUGGCUAGACUGCCUCUCUGGAUUCCUCGUCACUCAGCAGGGCAUCUCUGAGAGAAAUGCC | 0.77 |
| UACGUAGGUGGUUUUCCCCUGAUAGUGCUAGGGGGGCCUGGAAGUUUGGACUGGGCAGAGCACAACACAGCGUGGCAAAGUGGCUGUGGCUAGACUGCCUCUCUGGAUUCCUCGUCUCUCAGCAGGGCAUCUCUGAGAGAAAUGCC | 0.09 |
| UACGUAGGUGGUUUCCCCCUGAUAGUGCUAAGGGGGCCUGGAAGUUUGGACAGGGCAGAGCUCAACACAGCGUGGCCAAGUGGCUGUGGCUAGACUGCCUCUCUGGAUUCCUCGUCACUCAGCAGGGCAUCUCUGAUAGAAAUGCC | 1.19 |
| UACGUAGGUGGUUUUCCCCUGACAGUGCUAAGGGGGCCAGGAAGUUUGGACUGGGCAGAGCUCAACACAGCGUGGCAAAGUGGCUGUGGCUAGACUGCCUCUCUGGAUUCCUCGUCACUCAGCCGGGCAUCUCUGAGAGAAAUGCC | 1.37 |
| UACGUAGGUGGUUUUCCCCUGAUAGUGCUAAGGGGGCCUGGAAGUUUGGGCUGGGCAGAGCUCAACACAGCGUGGCAAAGUGGCUGUGGCUAGACUGCCUCUCUGGAUUCCUCGUCACUCAGCAGGGCAUCUCAGAGAGAAACGCC | 0.4 |
| UACGUAGGUGGUUUUCCCCUGGUAGUGCUAAGGGGGCCUGGAAGUUUGGGCUGGGCAGAGCUCAACACAGCGUGGCAAAGUGGCUGUGGCUAGACUGCCUCUCUGGAUUCCUCGUCACUCAGCAGGGCAUCCCUGAGAGAAAUGCC | 1.08 |
| UACGUAGGUGGUUUUCCCCUGAUGGUGCUAAGGGGGCCUGGAAGUUUGGACUGGGCAGAGCUCAACACAGCGCGGCAAAGUGGCUGUGGCUAGACUGCCUCUCUGGAUUCCUCGUCACUCAGCAGGGCAUCUCUGAGAGAAAUGCA | 2.63 |
| UACGUAGGUGGUUUUCCCCUGAUAGUGCUAAGGGGGCCUGGAAGUUUGGACUGGGCAGAGCUCAACACAGCGUGGCGAAGUGGCUGUGGCUAGACUGCCACUCUGGAUUCCCCGCCACUCAGCAGGGCAUCUCUGAGAGAAAUGCC | 0 |
| UACGUAGGUGGCUUUCCCCUGAUAGUGCUAAGGGGGCCUGGAAGUUUGGACCGGGCAGAGCUCAACACAGCGUGGCAAAGUGGCUGUGGCUAGACUGCCUCUCUGGAUUCCUCGUCACUCAGCAGGGCAUCUCUGAGAGAAGUGCC | 1.56 |
| UACGUAGGUGGUUCUCCCCUGAUAGUGCUAAGGGGGCCUGGAAGUUUGGGCUGGGCAGAGCUCAACACAGCGUGGCAAAGUGGCUGUGGCUAGACUGCCUCUCUGGAUUCCUCGUCACUCAGCAGGGCAUCUCUGAGAGAAGUGCC | 1 |
| UACGUAGGUGGUUUUCCCCUGACAGUGCUAAGGGGGCUUGGAAGUUUGGACUGGGCAGAGCUCAACACAGCGUGGCAAAGUGGCUGUGGCUGGACCGCCUCUCUGGAUUCCUCGUCACUCAGCAGGGCAUCUCUGAGAGAAAUGCC | 0.13 |
